Measured values from PubChem BioAssay AID463173 (ICCB-Longwood Screening Facility, Harvard Medical School, 2010).
About 1,700 (3.3%) of roughly 52,000 compounds were called active. Rule as the data show it: active = survival mostly below about 52% (no sharp cut-off); inactive = mostly above about 56%. This is one part of the list.

System: Wild type
Test: S. aureus survival, RN4220 and DeltatarO strains – OD600, teichoic acid synthesis inhibitors, primary screen (AID 463173)
Conditions: S. aureus RN4220 wild type/DeltatarO growth, OD600, 18 h, active compounds read low, screened at 18.75 µg/mL (by protocol)

SMILES	survival
CCOc1cc2[nH]c(=O)n(Cc3ccc(C(=O)N4CCN(c5cccc(Cl)c5)CC4)cc3)c(=O)c2cc1OCC	inactive: 74%
Cn1nc(C(=O)Nc2ccc(F)c(Cl)c2)c2c1-c1ccccc1S(=O)(=O)C2	inactive: 93%
Cc1cccc(-c2nnc(C3CCN(S(=O)(=O)c4cccc(Cl)c4)CC3)o2)c1	inactive: 79%
CCc1ccc(CNC(=O)C2CCN(c3nn4cc(-c5ccc(F)cc5)nc4s3)CC2)cc1	inactive: 70%
O=C(Cn1c(=O)nc(-c2ccccc2)c2cc(Cl)ccc21)N1CCN(c2ccc(F)cc2)CC1	inactive: 78%
COc1ccc(Br)cc1CN1C(=O)c2ccccc2C1C(=O)NC1CCCCCC1 (centres undefined)	inactive: 86%
CCOC(=O)c1c(C)c(-c2ccccc2)n(CC(=O)NC2CCCCC2)c1C	inactive: 128%
COc1cc(OC)c(OC)cc1CN1CCN(S(=O)(=O)c2ccc(NC(C)=O)cc2)CC1	inactive: 106%
Cc1cccc(CNC(=O)CS(=O)(=O)c2cccc3nsnc23)c1	inactive: 85%
COc1cc(NC(=O)Cn2cnc(S(=O)(=O)N3CCCC3)c2)cc(OC)c1OC	inactive: 68%
COc1ccc(Cl)cc1NC(=O)c1nn(-c2ccc(C)cc2)c(=O)n(C)c1=O	inactive: 69%
CCOC(=O)c1c(C)[nH]c(C)c1S(=O)(=O)N1CCCC(C(=O)N2CCN(c3cccc(C)c3C)CC2)C1 (centres undefined)	inactive: 124%
COCCNC(=O)c1cnc2sc(N3CCC(C)CC3)nn2c1=O	inactive: 88%
CCN(C(=O)c1cnc2ccc(C)cn2c1=O)c1ccccc1	inactive: 93%
CCOC(=O)C1CCN(C(c2cccc(F)c2)c2c(O)cc(C)n(CCOC)c2=O)CC1 (centres undefined)	inactive: 131%
Clc1ccc(-c2noc3ncnc(NCCc4ccccc4)c23)cc1	inactive: 70%
CCc1ccc(NC(=O)C2CCN(c3nn4c(=O)cc(C)nc4s3)CC2)cc1	inactive: 95%
CCC(=O)Nc1nnc(C(C)(C)C)s1	inactive: 105%
O=C(Nc1ccc2c(c1)CCCN2C(=O)c1cccs1)c1ccccc1Cl	inactive: 82%
CCCCn1cc2c(c1-c1ccc(Cl)cc1)c(=O)n(C)c(=O)n2C	inactive: 83%
COc1cc(OC)c(Nc2nc3ccc(C(=O)c4ccccc4)cc3n3c(C)nnc23)cc1Cl	inactive: 93%
O=C(Nc1ccc(OC(F)(F)F)cc1)c1cc2ccccn2n1	inactive: 83%
O=c1nc2n(-c3ccccc3F)c3ccccc3cc-2c(=O)[nH]1	inactive: 58%

SMILES	survival
Cc1cc(C)cc(NS(=O)(=O)c2cc3c(cc2C)NC(=O)CO3)c1	inactive: 78%
COc1ccc(Cl)cc1NC(=O)c1sc2nc3n(c(=O)c2c1C)CCC3	inactive: 88%
COc1ccc(NC(=O)CSc2nnc(-c3nonc3NC(C)=O)n2-c2ccccc2)cc1	inactive: 79%
CCOC(=O)c1c(NC(=O)c2ccc(S(=O)(=O)N(CC(C)C)CC(C)C)cc2)sc2c1CCN(C(=O)OCC)C2	inactive: 146%
CCC(=O)N(CCC(c1ccccc1)c1ccc2c(c1)OCO2)Cc1ccc(OC(C)C)cc1 (centres undefined)	active: 1%
CCOc1ccc(CCNS(=O)(=O)c2cc(Br)cc3c2N(C(C)=O)CC3)cc1OCC	inactive: 101%
Cc1cc(C)n(-c2nc3ccccc3nc2Nc2cccc(C)c2C)n1	active: 7%
CCC(Sc1nc2ccccc2c(=O)n1CCc1ccc(OC)c(OC)c1)C(=O)N(CC)CC (centres undefined)	inactive: 135%
CCCN(C(=O)Cn1cnc2onc(-c3ccc(F)cc3)c2c1=O)c1cccc(Cl)c1	inactive: 127%
CCN(CC)C(=O)Cn1c(=O)n(Cc2ccc(C(=O)NCCc3ccc(OC)c(OC)c3)cc2)c(=O)c2ccccc21	inactive: 93%
COC(=O)c1c(NC(=O)CCCOc2cccc(C)c2)sc2c1C(C(=O)OC)CC2 (centres undefined)	active: -3%
CCc1ccc(CN(Cc2cn[nH]c2-c2ccc(OC)cc2)C(=O)Nc2cc(Cl)ccc2OC)cc1	inactive: 75%
CC(=O)c1ccc(N2C(=O)N(CC(=O)c3ccc(F)cc3)c3ccccc3S2(=O)=O)cc1	inactive: 135%
Cc1ccc(-n2ncc3c(NC4CCCCCC4)ncnc32)cc1Cl	inactive: 87%
Cc1ccc(-n2ncc(C(=O)NCc3ccco3)c2C2CCN(C(=O)OC(C)(C)C)CC2)c(C)c1	inactive: 19%
Cc1occc1-c1nnc(SCC(=O)N2CCCC(C)C2)n1CC1CCCO1 (centres undefined)	inactive: 109%
COc1ccc(S(=O)(=O)NCCc2csc(-c3ccc(F)cc3)n2)cc1F	inactive: 81%
CCCCN(CCCNC(=O)c1cc(Nc2ccc(OC)c(OC)c2)nc2ccccc12)Cc1ccccc1	inactive: 79%
CCN(CC)C(=O)CSc1nc(C)cc(=O)[nH]1	inactive: 101%
CCOC(=O)C1=C(C)N=C2SCCC(=O)N2C1c1ccc(OCc2ccccc2)cc1 (centres undefined)	inactive: 121%
Cc1nonc1NC(=O)CNC1CCCCC1	inactive: 111%
O=C(CSc1nnc(-c2cccs2)o1)N1c2ccccc2CCc2ccccc21	inactive: 98%
Cc1sc2ncn(CC(=O)N(C)c3ccc(Br)cc3)c(=O)c2c1S(=O)(=O)N1CCC(C)CC1	inactive: 86%

SMILES	survival
Cc1nc2c(C(=O)NCc3ccccc3)c[nH]n2c(=O)c1Cc1ccccc1Cl	inactive: 22%
CC(=O)N1CCc2cc(S(=O)(=O)CCC(=O)N3CCN(c4cccc(C)c4C)CC3)ccc21	inactive: 88%
Cc1cccc(NC(=O)c2c(C)oc3ncn(CC(C)C)c(=O)c23)n1	inactive: 71%
Cc1nnc(SCC(=O)N(C(C)C)C(C)C)[nH]c1=O	inactive: 102%
O=C(NCCc1ccccc1)c1cc(-c2ccc(Cl)cc2)on1	inactive: 101%
COc1cccc(NC(=O)Nc2cccc(-c3cn4cccnc4n3)c2)c1	inactive: 90%
COc1ccc(NC(=O)c2noc3c2CCCC3)cc1Cl	inactive: 82%
Cc1cc(C)c(NC(=O)CSc2nc(=O)[nH]c3c2CCCC3)c(C)c1	inactive: 92%
CC(C)(C)c1ccc(OCC(=O)N2CCC(c3nc4ccccc4s3)CC2)cc1	inactive: 85%
CCCOC1(C(F)(F)F)NC(=O)N(c2ccc(Cl)cc2)C1=O (centres undefined)	inactive: 90%
CCOc1ccc(-c2nnc(Nc3ccc(S(N)(=O)=O)cc3)c3ccccc23)cc1	inactive: 88%
Cc1oc2c(c(C)cc3oc(=O)c(CC(=O)NCCc4ccccc4)c(C)c32)c1C	inactive: 112%
CN1C(C(=O)c2ccccc2)=C(OC(=O)c2ccc(Br)cc2)c2ccccc2S1(=O)=O	inactive: 96%
O=C(NC(=O)c1ccc(F)cc1)Nc1ccc(-c2cc(C(F)(F)F)nn2-c2ccccc2)cc1	inactive: 85%
O=C(NCCc1csc2nc(-c3ccccc3F)nn12)c1ccco1	inactive: 71%
CCOC(=O)c1c(C)[nH]c(C)c1S(=O)(=O)NCC(=O)Nc1cc(C)ccc1OC	inactive: 75%
COc1ccccc1NC(=O)c1c(NCc2ccc(OC)c(OC)c2OC)sc2c1CCCC2	inactive: 92%
COc1ccc(NC(=O)c2cc3c(=O)n(Cc4ccco4)ccc3nc2C)cc1	inactive: 49%
Cc1ccc(NC(=O)Nc2ccc3c(c2)N(C)C(=O)c2ccccc2S3)c(C)c1	inactive: 103%
Sc1ccc2oc3ccc(S)cc3c2c1	inactive: 104%
O=C(CSc1nnc(CNc2cccc(Cl)c2)o1)Nc1cccc(Cl)c1	inactive: 101%
COc1ccc(N2CCN(S(=O)(=O)CCNC(=O)C(c3ccccc3)c3ccccc3)CC2)cc1	inactive: 85%
CCN1CCN(CCCNC(=O)c2cnn(-c3ccccc3)c2C2CCN(C(=O)OC(C)(C)C)CC2)CC1	inactive: 64%

SMILES	survival
CCOC(=O)c1ccc(Nc2nc3ccccc3nc2NS(=O)(=O)c2ccc(Cl)cc2)cc1	inactive: 59%
Cc1ccc(-c2c(CN3CCN(c4cccc(C(F)(F)F)c4)CC3)csc2C)cc1	inactive: 86%
COc1cccc(C2C=C(c3ccc(C)c(C)c3)Nc3nnnn32)c1OC (centres undefined)	inactive: 71%
COc1cc(NC(=O)c2ccc(C)cc2)ccc1NC(=O)c1cc2ccccc2o1	inactive: 75%
Cc1ccc(C)c(CN2C(=O)C(=O)c3ccccc32)c1	inactive: 81%
CCCC(=O)c1cc(F)c(N2CCOCC2)cc1C	inactive: 121%
O=C1CSC2(C(=O)N(Cc3ccccc3F)c3ccccc32)N1c1ccc(F)cc1 (centres undefined)	inactive: 71%
CCOC(=O)C1=C(C)C(c2ccc(OC)cc2)NC(=O)N1 (centres undefined)	inactive: 103%
CCSc1nnc2n(-c3cccc(C)c3)c(=O)c3c4c(sc3n12)CCCC4	inactive: 81%
COc1ccc(CCC(=O)N2CCc3c([nH]c4ccccc34)C2c2ccc(F)cc2)cc1 (centres undefined)	inactive: 92%
Cc1ccc2onc(CNC(=O)N3CCN(c4cccc(C)c4C)CC3)c2c1	inactive: 57%
COc1ccc(-c2cc(C(=O)Nc3cccnc3Cl)no2)cc1OC	inactive: 140%
O=C(NCCc1ccccc1)c1ccc(CS(=O)(=O)c2ccc(Br)cc2)o1	inactive: 129%
COc1ccc(-n2ccnc2SCC(=O)Nc2ccc(F)cc2F)cc1	inactive: 143%
Cc1cc2nn(-c3ccccc3)nc2cc1NC(=O)c1cccc2c(Cl)cccc12	inactive: 70%
O=C(CN1CCC(N2CCCCC2)CC1)NC(c1ccccc1)c1ccccc1	inactive: 97%
Cc1nc2cccnc2n1-c1cccc(C(=O)N2CCN(c3ccc(Cl)cc3)CC2)c1	inactive: 58%
CCN(CCCNC(=O)Cn1ncc2c([nH]c3ccc(C)cc32)c1=O)c1cccc(C)c1	inactive: 59%
CCC(=O)N1c2ccccc2CC1C(=O)NCc1ccc(OC(C)C)cc1 (centres undefined)	inactive: 113%
Cc1cccc(CCNC(=O)c2sc3nc4n(c(=O)c3c2C)CCCC4)c1	inactive: 85%
